The values below are quoted from earlier work in PMC11006913.

Some of the results follow.

The first data set has as its target NKX2-5 K183E (Homo sapiens) (UniProt P52952). To be noted: PBM; conditions not shown; double strand, one strand shown; scale: upbm affinity estimate (log intensity, higher = more binding, comparable within an allelic series).
On to AAAGCACT [8-mer AAAGCACT], for which the binding signal is 11. In the case of GAAAGTGC [8-mer GAAAGTGC], the binding signal is 10.5. In the case of CCGAGTGC [8-mer CCGAGTGC], the binding signal was 10.3. Regarding ACTTACAC [8-mer ACTTACAC], the binding signal was 11.1. GCACTCAC [8-mer GCACTCAC]: the binding signal was 10.6. In the case of ATAAGGGG [8-mer ATAAGGGG], the binding signal is 11.1. For AAGTGTAA [8-mer AAGTGTAA], the binding signal is 10.9.

The target in a further data set is NKX2-5 R161P (Homo sapiens) (UniProt P52952). Particulars: PBM; conditions not shown; double strand, one strand shown; scale: upbm affinity estimate (log intensity, higher = more binding, comparable within an allelic series).
With GCACTTTA [8-mer GCACTTTA], the binding signal is 12.4. As for ATAAGATG [8-mer ATAAGATG], the binding signal was 11.4. As to ACAATTGA [8-mer ACAATTGA], the binding signal is 11.9.

With AAGTGCCT [8-mer AAGTGCCT], the binding signal is 12.4. For CAAGTGTC [8-mer CAAGTGTC], the binding signal is 12.4.

On to AAGTGCCA [8-mer AAGTGCCA], for which the binding signal is 12.5. For ACAAGTGC [8-mer ACAAGTGC], the binding signal is 12.5.

Consider AAGTGCAC [8-mer AAGTGCAC], for which the binding signal was 12.5. Turning to ATACTTAC [8-mer ATACTTAC], the binding signal was 12. As to CAAGTGCG [8-mer CAAGTGCG], the binding signal is 12.5. As for AAGTGCTC [8-mer AAGTGCTC], the binding signal is 12.4.

In another data set the target is NKX2-5 R190C (Homo sapiens) (UniProt P52952). Particulars: PBM; conditions not shown; double strand, one strand shown; scale: upbm affinity estimate (log intensity, higher = more binding, comparable within an allelic series).
For the sequence CCACTTCG [8-mer CCACTTCG], the binding signal is 10.4. In the case of CCTCTTAC [8-mer CCTCTTAC], the binding signal is 10.4. Regarding ACCCTCTC [8-mer ACCCTCTC], the binding signal was 10.2. On to AAAGCACT [8-mer AAAGCACT], for which the binding signal is 10.7. For the sequence GAAAGTGC [8-mer GAAAGTGC], the binding signal was 10.3. Consider AGAGTGGG [8-mer AGAGTGGG], for which the binding signal was 10.4. Turning to CAAGAGGG [8-mer CAAGAGGG], the binding signal is 10.3. Turning to ATAAGATG [8-mer ATAAGATG], the binding signal is 10.9.

Turning to CCGAGTGC [8-mer CCGAGTGC], the binding signal was 10.3. For the sequence CCATTATA [8-mer CCATTATA], the binding signal is 10.9.

Take CTAAGAGC [8-mer CTAAGAGC]: the binding signal was 10.4. Consider ACTTACAC [8-mer ACTTACAC], for which the binding signal was 10.8. Take CGAGTGGC [8-mer CGAGTGGC]: the binding signal is 10.2. As to ACAATTGA [8-mer ACAATTGA], the binding signal was 11.1. Consider CCCTCTCA [8-mer CCCTCTCA], for which the binding signal was 10.3.

As to CTTAATAC [8-mer CTTAATAC], the binding signal was 10.9.

For GCACTCAC [8-mer GCACTCAC], the binding signal was 10.4. In the case of GCCCTTGA [8-mer GCCCTTGA], the binding signal is 10.4.

Turning to CCAAGAGG [8-mer CCAAGAGG], the binding signal was 10.3. For the sequence ATAAGGGG [8-mer ATAAGGGG], the binding signal is 10.5.

Take CCACTAGA [8-mer CCACTAGA]: the binding signal was 10.4. Turning to ATACTTAC [8-mer ATACTTAC], the binding signal was 11. For AAGAGAGC [8-mer AAGAGAGC], the binding signal was 10.3.

Take CCAAGTAG [8-mer CCAAGTAG]: the binding signal is 10.4. For GACCCTTA [8-mer GACCCTTA], the binding signal was 10.4. Consider GGCACTCA [8-mer GGCACTCA], for which the binding signal is 10.4.

Turning to AGAGTGGC [8-mer AGAGTGGC], the binding signal is 10.4.

On to AAGTGTAA [8-mer AAGTGTAA], for which the binding signal was 10.7.

In the case of ACAAGGGG [8-mer ACAAGGGG], the binding signal is 10.3.

For the sequence AAGGGCCC [8-mer AAGGGCCC], the binding signal was 10.2. As to GAGTGGCC [8-mer GAGTGGCC], the binding signal was 10.3.

Consider GCCCTTAA [8-mer GCCCTTAA], for which the binding signal was 10.4.
